Source: PubChem BioAssay AID540267 (National Center for Advancing Translational Sciences (NCATS), 2011)
Out of some 340,000 compounds screened, about 530 (0.16%) were called active. The inconclusive results got no clear call from the source; some entries with a clear call stand among them for comparison. Rule as the data show it: active = activity change below about -80%; inconclusive = between about -30% and that limit; inactive = weaker than that.

assay: Small Molecules that selectively kill Giardia lamblia: qHTS; settings: Giardia lamblia trophozoite viability; at 7.66 µM; hits give low values;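 also: parasites exposed to compound for two days anaerobically before the ATP read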
Outline: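 Giardia trophozoites, 100 cells per well, were exposed to compounds for 48 hrs at 37 deg C under anaerobic conditions; viability was then read as ATP content by bioluminescence after 15-30 min at room temperature.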
% is scaled to controls: 0 for no effect and ±100 for the full control effect.

Row | Compound | activity change
1 | Cc1nn(-c2ccccc2)c(N)c1C1(O)C(=O)Nc2ccccc21 (stereo unspecified) | inconclusive: -32.5% [inhibitor]
2 | CN1CCN(C2Cc3ccccc3Sc3ccc(Cl)cc32)CC1 (stereo unspecified) | inconclusive: -36.5% [inhibitor]
3 | CCOc1ccc(C(=O)C(CN2CCOCC2)c2ccccc2)cc1 (stereo unspecified) | inactive: 14.8%
4 | CC(C)Cn1c(SC(C)C(=O)NCC2CCCO2)nc2ccc(Cl)cc2c1=O (stereo unspecified) | inconclusive: -31.9% [inhibitor]
5 | Cc1cc(N2CCOCC2)n2ncc(-c3ccccc3)c2n1 | inconclusive: -31.9% [inhibitor]
6 | Cc1[nH]n(C2=NCCS2)c(=O)c1N=Nc1cccc(C(F)(F)F)c1 | inconclusive: -58.5% [inhibitor]
7 | COc1ccccc1CNC(=O)C1CC(c2ccccc2C(F)(F)F)=NO1 (stereo unspecified) | inconclusive: -33.7% [inhibitor]
8 | CCOC(=O)c1c(S(=O)(=O)NCCCc2ccco2)c(C)n(C)c1C | inconclusive: -44.9% [inhibitor]
9 | COc1ccc(-c2cc3nc(C)n(N)c(=O)c3s2)cc1 | inconclusive: -70.5% [inhibitor]
10 | CCOc1cc(/C=C/c2nc3ccccc3s2)ccc1OCC(=O)N1CCOCC1 | inactive: -1.57%
11 | CC(=NNC(=O)c1ccncc1)c1ccccc1Cl | inactive: -7.65%
12 | CCOC(=O)c1c(C)[nH]c(C(=O)NNC(=O)c2ccccc2F)c1C | inactive: 1.86%
13 | CC(=O)Nc1ccc2c(c1)ncn2C | inactive: -3.76%
14 | Cc1cccc(NC(=O)c2ccc([N+](=O)[O-])s2)n1 | active: -89%
15 | Cc1ccc2cc(NC(=O)c3ccccc3)ccc2n1 | inconclusive: -38.8% [inhibitor]
16 | CC(=O)c1ccc(NC(=O)COC(=O)Cn2cnc3ccccc32)cc1 | inactive: -1.26%
17 | CCCn1nnnc1NC(=O)COc1ccc(Br)cc1 | inactive: -13.2%
18 | CN(C)c1ccc(N=C/C=C2/N(C)c3ccccc3C2(C)C)cc1 | inactive: 30.2%
19 | O=C(CCN1CCN(c2ccccc2)CC1)N/N=C/c1ccc([N+](=O)[O-])o1 | inconclusive: -40.6% [inhibitor]
20 | COc1ccc(NC(=O)Nc2cccs2)cn1 | inconclusive: -35.2% [inhibitor]
21 | CC(NC(=O)c1ccc([N+](=O)[O-])o1)C12CC3CC(CC(C3)C1)C2 (stereo unspecified) | active: -86.5%
22 | COc1cc2cc(C[C@H](C)O)oc(=O)c2cc1OC | inconclusive: -36.5% [inhibitor]
23 | CS(=O)(=O)N1CCN=C1SCc1cccc(F)c1 | inconclusive: -33.1% [inhibitor]
24 | CCOc1ccc(N2C(=O)c3ccccc3NC2(C)CC)cc1 (stereo unspecified) | inactive: -15.8%
25 | CC(=O)NCCn1c(SCC(=O)NCCc2ccc(S(N)(=O)=O)cc2)nc2ccccc2c1=O | inactive: -10.3%
26 | CC(=O)NC(Cc1ccc(F)cc1)C(=O)NC1CCN(c2ncccc2[N+](=O)[O-])CC1 (stereo unspecified) | inconclusive: -72.1% [inhibitor]

Row | Compound | activity change
27 | Cc1ccc(C(=O)N/C(=C\c2cn(S(=O)(=O)N(C)C)c3ccccc23)C(=O)NCCCn2ccnc2)cc1 | inconclusive: -42.4% [inhibitor]
28 | COc1cccc(N(CC(=O)NCc2ccccc2)C(=O)CCC(=O)Nc2nccs2)c1 | inconclusive: -31.4% [inhibitor]
29 | OCCOCCNc1ncnc2c1c(-c1ccccc1)cn2-c1ccccc1 | inconclusive: -51% [inhibitor]
30 | COc1ccc(Cn2c(=O)[nH]c3cc(C(=O)N4CCN(c5ccc(C(C)=O)cc5)CC4)ccc3c2=O)cc1 | inconclusive: -37.2% [inhibitor]
31 | COC(=O)c1ccccc1NC(=O)Cn1cnc2c1c(=O)n(C)c(=O)n2C | inconclusive: -31.8% [inhibitor]
32 | CCC(=O)NNc1nc2c(C)c(C)ccc2s1 | inconclusive: -31.2% [inhibitor]
33 | O=C(N/N=C1/C(=O)c2cccc3cccc1c23)c1ccc(Cl)cc1 | inactive: -5.25%
34 | COc1ccc(C2CC(c3ccccc3)Oc3c(C)ccc(C(C)C)c32)cc1 (stereo unspecified) | inconclusive: -49.2% [inhibitor]
35 | OC/C(Br)=C(\Br)CO | inconclusive: -30.3% [inhibitor]
36 | C[C@H]1CN=C(Nc2ccccc2)N1CC1CCC1 | inconclusive: -36.3% [inhibitor]
37 | COc1ccc(C2=NN(C(=O)c3cccs3)C(c3ccccc3OC)C2)cc1OC (stereo unspecified) | inconclusive: -30.6% [inhibitor]
38 | CCOC(=O)CC1C(=O)NCCN1c1nc2ccc(C)cn2c(=O)c1/C=C1\SC(=S)N(CC(C)C)C1=O (stereo unspecified) | inactive: 5.91%
39 | Cc1ccc(C(=O)NCCc2ccccc2)cc1 | inconclusive: -38% [inhibitor]
40 | COc1ccc(/C=N/NC(=O)CCn2nnc3ccccc32)cc1 | inconclusive: -34% [inhibitor]
41 | Cc1nc2scc(C)n2c(=O)c1S(=O)(=O)NCc1ccc(F)cc1 | inconclusive: -43.7% [inhibitor]
42 | CC1(C)C(=O)Nc2ccccc2N1C(=O)COC(=O)c1cc([N+](=O)[O-])ccc1N | inconclusive: -31.7% [inhibitor]
43 | O=C(c1ccco1)N1N=C(c2ccc(Cl)cc2)CC1c1ccco1 (stereo unspecified) | inactive: 26.2%
44 | CCOC(=O)N1CCC(=NNC(=O)NC2CCCCC2)CC1 | inconclusive: -31% [inhibitor]
45 | Cc1cc(OCC(=O)N2CCC(O)CC2)c2c(C)cc(=O)oc2c1 | inconclusive: -35.5% [inhibitor]
46 | COc1cccc(NC(=O)CCC2CCN(C(=O)C3CC=CCC3)CC2)c1 (stereo unspecified) | inconclusive: -34.6% [inhibitor]
47 | CC(C)C[C@H](NC(=O)c1nc[nH]c1C(=O)N[C@@H](CCCCNC(=O)OC(C)(C)C)C(=O)OC(C)(C)C)C(=O)OCc1ccccc1 | inactive: 14.5%
48 | Cc1ccc(CCN2CC(C(=O)NCCCN3CCCCC3)CC2=O)cc1 (stereo unspecified) | inconclusive: -32.3% [inhibitor]
49 | Cc1ccccc1-c1n[nH]c(=S)n1/N=C/C=C/c1ccco1 | inactive: -29.3%
50 | COc1ccc(CCC(=O)OCC(=O)Nc2ccc(OC)c(OC)c2)cc1OC | inactive: 47.9%
51 | COC(=O)c1[nH]c2cc(C)ccc2c1NC(=O)CN1CCN(C(=O)c2ccco2)CC1 | inactive: -2.89%
